# Test results as given in the supplement of paper PMC8728848.
# The other results are listed elsewhere or left out.
# B1: Epa1to9 (Candida glabrata) (protein)
# chain: MGSSHHHHHHSSGLVPRGSHMTSSNDISLASKDPTTFPLGCSPDITTPKKGLSMELYSYDFRKKGSYPCWDAAYLDPNYPRTGYKSHRLLAKVDGVTGNINFYYHATKGCTPQLGHLPASYNYPKPLTMTNFTMLLYGYFRPKVTGFHTFTISADDLLFVNFGAGNAFDCCRRDSSADHFGNYQAYAIWGSKTAKDELTVHLDAGVYYPIRLFYNNRDYHGALSFTFKTESNENTVSDFSEYFFSLDDTEEGCPGLISYD
# Tests used:
# Test in all cases: glycan array binding signal (z-score within array); higher = stronger binding
# Conditions in all cases: glycan notation: IUPAC condensed, linker removed
# [1] = molecular target: Fuc(a1-2)[GalNAc(a1-3)]Gal(b1-3)GlcNAc(b1-3)GalNAc
# Outline: (§1)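 Glycan array binding is given as a within-array Z-score, which can be read as non-binding when negative. The arrays, 3228 of them, came from the Consortium for Functional Glycomics database and were retained only where the protein sequence was available. Z-scores were averaged across arrays of the same protein sequence at different concentrations or buffers and across linkers.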
# [2] = molecular target: Fuc(a1-2)[GalNAc(a1-3)]Gal(b1-3)GlcNAc(b1-6)GalNAc
# Outline: as §1
# [3] = molecular target: Fuc(a1-2)[GalNAc(a1-3)]Gal(b1-4)Glc
# Outline: as §1
# [4] = molecular target: Fuc(a1-2)[GalNAc(a1-3)]Gal(b1-4)GlcNAc
# Outline: as §1
# [5] = molecular target: Fuc(a1-2)[GalNAc(a1-3)]Gal(b1-4)GlcNAc(b1-2)Man
# Outline: as §1
# [6] = molecular target: Fuc(a1-2)[GalNAc(a1-3)]Gal(b1-4)GlcNAc(b1-2)Man(a1-3)[Fuc(a1-2)[GalNAc(a1-3)]Gal(b1-4)GlcNAc(b1-2)Man(a1-6)]Man(b1-4)GlcNAc(b1-4)GlcNAc
# Outline: as §1
# [7] = molecular target: Fuc(a1-2)[GalNAc(a1-3)]Gal(b1-4)GlcNAc(b1-2)Man(a1-3)[Fuc(a1-2)[GalNAc(a1-3)]Gal(b1-4)GlcNAc(b1-2)Man(a1-6)]Man(b1-4)GlcNAc(b1-4)[Fuc(a1-6)]GlcNAc
# Outline: as §1
# [8] = molecular target: Fuc(a1-2)[GalNAc(a1-3)]Gal(b1-4)GlcNAc(b1-3)Gal(b1-4)GlcNAc
# Outline: as §1
# [9] = molecular target: Fuc(a1-2)[GalNAc(a1-3)]Gal(b1-4)GlcNAc(b1-3)Gal(b1-4)GlcNAc(b1-3)Gal(b1-4)GlcNAc
# Outline: as §1
# [10] = molecular target: Fuc(a1-2)[GalNAc(a1-3)]Gal(b1-4)GlcNAc(b1-3)GalNAc
# Outline: as §1
# [11] = molecular target: Fuc(a1-2)[GalNAc(a1-3)]Gal(b1-4)GlcNAc(b1-3)[Fuc(a1-2)[GalNAc(a1-3)]Gal(b1-4)GlcNAc(b1-6)]GalNAc
# Outline: as §1
# [12] = molecular target: Fuc(a1-2)[GalNAc(a1-3)]Gal(b1-4)GlcNAc(b1-6)GalNAc
# Outline: as §1
# [13] = molecular target: Fuc(a1-2)[GalNAc(a1-3)]Gal(b1-4)[Fuc(a1-3)]GlcNAc
# Outline: as §1
# [14] = molecular target: Fuc(a1-2)[GalNAc(a1-3)]Gal(b1-4)[Fuc(a1-3)]GlcNAc(b1-3)GalNAc
# Outline: as §1
# [15] = molecular target: Fuc(a1-2)[GalNAc(a1-4)]Gal(b1-4)GlcNAc
# Outline: as §1
# [16] = molecular target: Fuc(a1-2)[GalNAc(b1-3)]Gal
# Outline: as §1
# Fuc(a1-3)GlcNAc = molecular target: Fuc(a1-3)GlcNAc
# Outline: as §1
# [17] = molecular target: Fuc(a1-3)[Gal(b1-4)]Glc6S
# Outline: as §1
# [18] = molecular target: Fuc(a1-3)[Gal(b1-4)]GlcNAc
# Outline: as §1
# [19] = molecular target: Fuc(a1-3)[Gal(b1-4)]GlcNAc(b1-2)Man
# Outline: as §1
# [20] = molecular target: Fuc(a1-3)[Gal(b1-4)]GlcNAc(b1-2)Man(a1-3)[Fuc(a1-3)[Gal(b1-4)]GlcNAc(b1-2)Man(a1-6)]Man(b1-4)GlcNAc(b1-4)GlcNAc
# Outline: as §1
# [21] = molecular target: Fuc(a1-3)[Gal(b1-4)]GlcNAc(b1-2)Man(a1-3)[Fuc(a1-3)[Gal(b1-4)]GlcNAc(b1-2)Man(a1-6)]Man(b1-4)GlcNAc(b1-4)[Fuc(a1-6)]GlcNAc
# Outline: as §1
# [22] = molecular target: Fuc(a1-3)[Gal(b1-4)]GlcNAc(b1-3)Gal(b1-3)[Fuc(a1-4)]GlcNAc
# Outline: as §1
# [23] = molecular target: Fuc(a1-3)[Gal(b1-4)]GlcNAc(b1-3)Gal(b1-4)[Fuc(a1-3)]GlcNAc
# Outline: as §1
# [24] = molecular target: Fuc(a1-3)[Gal(b1-4)]GlcNAc(b1-3)Gal(b1-4)[Fuc(a1-3)]GlcNAc(b1-3)Gal(b1-4)[Fuc(a1-3)]GlcNAc
# Outline: as §1
# [25] = molecular target: Fuc(a1-3)[Gal(b1-4)]GlcNAc(b1-3)GalNAc
# Outline: as §1
# [26] = molecular target: Fuc(a1-3)[Gal(b1-4)]GlcNAc(b1-6)GalNAc
# Outline: as §1
# [27] = molecular target: Fuc(a1-3)[Gal(b1-4)]GlcNAc(b1-6)[Gal(b1-3)GlcNAc(b1-3)]Gal(b1-4)Glc
# Outline: as §1
# [28] = molecular target: Fuc(a1-3)[Gal(b1-4)]GlcNAc6S
# Outline: as §1
# [29] = molecular target: Fuc(a1-3)[Gal3S(b1-4)]Glc
# Outline: as §1
# [30] = molecular target: Fuc(a1-3)[Gal3S(b1-4)]GlcNAc
# Outline: as §1
# [31] = molecular target: Fuc(a1-3)[Gal3S(b1-4)]GlcNAc6S
# Outline: as §1
# [32] = molecular target: Fuc(a1-3)[GalNAc(b1-4)]GlcNAc
# Outline: as §1
# [33] = molecular target: Fuc(a1-3)[GalNAc(b1-4)]GlcNAc6S
# Outline: as §1
# Fuc(a1-4)GlcNAc = molecular target: Fuc(a1-4)GlcNAc
# Outline: as §1
# Fuc(b1-3)GlcNAc = molecular target: Fuc(b1-3)GlcNAc
# Outline: as §1
# Gal(a1-2)Gal = molecular target: Gal(a1-2)Gal
# Outline: as §1
binder,measurement,setting,value
B1,glycan array binding signal (z-score),[1],-0.289
same,glycan array binding signal (z-score),[2],-0.341
same,glycan array binding signal (z-score),[3],-0.351
same,glycan array binding signal (z-score),[4],-0.351
same,glycan array binding signal (z-score),[5],-0.356
same,glycan array binding signal (z-score),[6],-0.318
same,glycan array binding signal (z-score),[7],-0.341
same,glycan array binding signal (z-score),[8],-0.339
same,glycan array binding signal (z-score),[9],-0.296
same,glycan array binding signal (z-score),[10],-0.347
same,glycan array binding signal (z-score),[11],-0.271
same,glycan array binding signal (z-score),[12],-0.266
same,glycan array binding signal (z-score),[13],-0.318
same,glycan array binding signal (z-score),[14],-0.324
same,glycan array binding signal (z-score),[15],-0.347
same,glycan array binding signal (z-score),[16],-0.355
same,glycan array binding signal (z-score),Fuc(a1-3)GlcNAc,-0.354
same,glycan array binding signal (z-score),[17],-0.207
same,glycan array binding signal (z-score),[18],-0.328
same,glycan array binding signal (z-score),[19],-0.308
same,glycan array binding signal (z-score),[20],-0.354
same,glycan array binding signal (z-score),[21],-0.275
same,glycan array binding signal (z-score),[22],-0.328
same,glycan array binding signal (z-score),[23],-0.309
same,glycan array binding signal (z-score),[24],-0.261
same,glycan array binding signal (z-score),[25],-0.293
same,glycan array binding signal (z-score),[26],-0.272
same,glycan array binding signal (z-score),[27],-0.326
same,glycan array binding signal (z-score),[28],0.08
same,glycan array binding signal (z-score),[29],-0.309
same,glycan array binding signal (z-score),[30],-0.308
same,glycan array binding signal (z-score),[31],0.005
same,glycan array binding signal (z-score),[32],-0.34
same,glycan array binding signal (z-score),[33],-0.365
same,glycan array binding signal (z-score),Fuc(a1-4)GlcNAc,-0.346
same,glycan array binding signal (z-score),Fuc(b1-3)GlcNAc,-0.348
same,glycan array binding signal (z-score),Gal(a1-2)Gal,-0.182
